Measured values as given in the supplement of paper PMC7726561.
The full ranking holds about 1,100 sequences; the median of “thermal melting temperature (Tm) of peptide-HLA complex” is about 58, and the lowest 2% start at about 42. The list shows a part of the results.

B1: unnamed (peptide)
chain: RPFLAEAPTAL
B2: unnamed (peptide)
chain: KIIDFIYTA
B3: unnamed (peptide)
chain: ILDDTAKNLRV
B4: unnamed (peptide)
chain: SLLGGVLRV
B5: unnamed (peptide)
chain: KLMDPGSLPPL
B6: unnamed (peptide)
chain: SLFGGSVKL
B7: unnamed (peptide)
chain: KLQDQIFNL
B8: unnamed (peptide)
chain: YLEPYLKEV
B9: unnamed (peptide)
chain: RLYPWGVVEV
B10: unnamed (peptide)
chain: SLMDLQERL
B11: unnamed (peptide)
chain: ILMGVLKEV
B12: unnamed (peptide)
chain: ALNGHVEMV
B13: unnamed (peptide)
chain: RLFDEPQLASL
B14: unnamed (peptide)
chain: KLLEPVPVSV
B15: unnamed (peptide)
chain: GLADITQQL
B16: unnamed (peptide)
chain: WLAETTHAL
B17: unnamed (peptide)
chain: NLFNRYPAL
B18: unnamed (peptide)
chain: KLYGPEGLELV
B19: unnamed (peptide)
chain: SMGQLPHTV
B20: unnamed (peptide)
chain: YLVVKIEKV
B21: unnamed (peptide)
chain: FLKDLVASV
B22: unnamed (peptide)
chain: RLLENMTEV
B23: unnamed (peptide)
chain: ILAPTVQEL
B24: unnamed (peptide)
chain: ALLAGSEYLKL
B25: unnamed (peptide)
chain: RLAEALPKQSV
B26: unnamed (peptide)
chain: LLDPNIYRT
B27: unnamed (peptide)
chain: FLADRFVEGV
B28: unnamed (peptide)
chain: RILDIDIPMSV
B29: unnamed (peptide)
chain: YLSDIPLHDA
B30: unnamed (peptide)
chain: FLNKEITSV
B31: unnamed (peptide)
chain: VLYPHPPLA
B32: unnamed (peptide)
chain: ILIRPLVSV
B33: unnamed (peptide)
chain: VLQDIQVML
B34: unnamed (peptide)
chain: ILLTEPGQVKL
B35: unnamed (peptide)
chain: GLADNTVIAKV
B36: unnamed (peptide)
chain: VLYEDSLSSQV

molecular target: HLA-A*02:01; experiment: thermal melting temperature (Tm) of peptide-HLA complex; higher = more thermostable pHLA complex; conditions: C1R-A*02:01
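Also: cell lysates heated 10 min at 37–73 °C, remaining pHLA pulled down with pan-class I antibody, peptides quantified by DIA-MS versus 37 °C, Tm where half the complex is lost.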

Sequence | thermal melting temperature [°C]
B1 | 48
B2 | 58
B3 | 44.7
B4 | 55.7
B5 | 57.3
B6 | 61.2
B7 | 56
B8 | 63.1
B9 | 63.7
B10 | 57.6
B11 | 60.3
B12 | 54.2
B13 | 58.5
B14 | 61.6
B15 | 58.3
B16 | 53.9
B17 | 58.4
B18 | 56

Sequence | thermal melting temperature [°C]
B19 | 41.4
B20 | 55.3
B21 | 63.3
B22 | 60
B23 | 51.6
B24 | 63.4
B25 | 41.8
B26 | 43.6
B27 | 61.4
B28 | 57
B29 | 58.2
B30 | 59.6
B31 | 60.2
B32 | 61.4
B33 | 53.5
B34 | 53.9
B35 | 62.3
B36 | 50.4
